Read counts are not given, so values of variants with three or more changes are uncertain.

This is an account of results in the RNAGym collection of RNA variant scans (doi:10.7554/elife.90254).

B1: LINE1-mini (parent)
chain: GGCAGAGCUCAACACAGCGUGGCAAAGUGGCUGUGGCUAGACUGCC

Variants of B1 are the subject of the data set. The data set can be described thus: self-cleavage, relative activity (ratio to wild type); higher = more cleavage; in vitro, sequencing; the parent is a self-cleaving ribozyme.
C13A C18A G19U A24U U28A: the self-cleavage is 0.04.

For C8U C15A G19U G27C C37G G40A C42A, the self-cleavage amounted to 0.01.

Take C3G G5C A11U G22A G36U: the self-cleavage is 0.02.

In the case of G2A A4C G5U C13A G21C G29A, the self-cleavage was determined as 0.12.

In the case of A4G A14G C18U G27C C37U, the self-cleavage is 0.48.

Consider C13G G17U G30C, for which the self-cleavage was found to be 0.03.

Turning to C8A G21C U38A, the self-cleavage was 0.64.

For the variant G2C C3A A4C G27A U43A, the self-cleavage was determined as 0.05.

Take G7C A24C G36A U43A: the self-cleavage was 0.05.

On to A16G G30A A39U, for which the self-cleavage stood at 0.28.

For the variant C13U G17U G19A, the self-cleavage is 0.07.

G7A A14C A24G: the self-cleavage came to 0.1.

Consider A11G A14G C42A, for which the self-cleavage came out at 0.03.

As to C13A G19U G22U, the self-cleavage was 0.11.

For G7U A16G C18A, the self-cleavage was determined as 0.31.

For C15A A26G C45A, the self-cleavage is 0.01.

On to A6U U20C A26C C45G, for which the self-cleavage was 0.03.

As to A14G U20G C31U, the self-cleavage was 0.02.

As to G1U A24C U34G G40U, the self-cleavage amounted to 0.02.

With A6U C37G C42U G44C, the self-cleavage came to 0.21.

As for C3A A11G U20A A39U, the self-cleavage came to 0.01.

As for C23A C31A A41C, the self-cleavage worked out at 0.02.

For the variant A12C G19C G35U C37U A39U, the self-cleavage came out at 0.

A26C C31G A39U C46A: the self-cleavage worked out at 0.03.

Take C8A U20G U38A: the self-cleavage was determined as 0.19.

For the variant A4G A14G G40A, the self-cleavage turned out to be 0.

On to G7A C8A C18G, for which the self-cleavage was 0.39.

A4G A11U A16C G22A U32A G36U: the self-cleavage was 0.02.

In the case of G5A G19A G30A, the self-cleavage turned out to be 0.22.

For the variant U9C C10G A26C, the self-cleavage was determined as 0.

As for G29U G40U A41U, the self-cleavage is 0.25.

With G2A G7A A41U, the self-cleavage worked out at 0.26.

C15U A25U G33A C46U: the self-cleavage amounted to 1.09.

As to C8U U9A C23U C31G G40C, the self-cleavage is 0.07.

Turning to C3U C37U C45A, the self-cleavage was 0.07.

Consider A4G U9G C15A, for which the self-cleavage is 0.15.

With G17C G21C G35U, the self-cleavage was determined as 0.03.

C15A G27U U32C G35A: the self-cleavage was 0.04.

Take C3U C10U A11C C37U: the self-cleavage was 0.04.

Take C10A G35A U43G C45G: the self-cleavage was 0.01.

For C3U G17A U28G C46G, the self-cleavage turned out to be 0.04.

In the case of C23A U28C G30A, the self-cleavage was found to be 1.78.

Turning to C3G U9G A12G G21U C37A A39G, the self-cleavage came out at 0.03.

Regarding C3A A24G A41C G44U, the self-cleavage turned out to be 0.03.

As for C23G U28G A39U, the self-cleavage came to 0.26.

Turning to C13U A41U G44A, the self-cleavage is 0.03.

C10U U32G G44U: the self-cleavage is 0.09.

As to G2U C3G A24C C31A, the self-cleavage is 0.02.

Regarding A12C A24C G27U U34A, the self-cleavage was 0.06.

As for U20G G21U G22U G35A, the self-cleavage worked out at 0.12.

On to A14U G29A C46U, for which the self-cleavage came out at 0.07.

C13A A16C G35U: the self-cleavage is 0.08.

Regarding A6G A14U G36U, the self-cleavage was 0.5.

As for G5A G27U G30U C37A, the self-cleavage stood at 0.12.

For C8U C18A C23A, the self-cleavage was 0.07.

Regarding C13A A16C G22A U34A, the self-cleavage was determined as 0.09.

As to U9G A16U A41U, the self-cleavage amounted to 0.01.

For the variant C8A C10A G21U A24C G27A G33U U38A, the self-cleavage was 0.01.

On to G1C G2C G22U C46U, for which the self-cleavage amounted to 0.06.

Turning to C3G A26C C31A C37A A39C, the self-cleavage was 0.17.

As for U9A C23G U32C A41C, the self-cleavage is 0.02.

C8G C37U G44A: the self-cleavage worked out at 0.01.

In the case of G2U C18A G22U G40U, the self-cleavage is 0.01.

On to A6G C10U C13G, for which the self-cleavage worked out at 0.

For G5C C13A C31G U43C G44A, the self-cleavage amounted to 0.01.

A6G G36C G44C: the self-cleavage came to 0.01.

Turning to U9G G35C C37G G40C, the self-cleavage was 0.01.

As to G30A A39C A41C, the self-cleavage worked out at 0.06.

Consider G5A C8U C15G C45A, for which the self-cleavage was 0.06.

In the case of A24C G27U A39U, the self-cleavage came to 0.3.

With G1A U28G G35A, the self-cleavage turned out to be 0.26.

As to G5U G21U G33C, the self-cleavage came out at 0.02.

A12C U28A U38A A39C: the self-cleavage came to 0.01.

Take G1C A4C G7A C31U: the self-cleavage worked out at 0.

On to A4C G5C C8U C45G, for which the self-cleavage turned out to be 0.02.

Consider U9G G17C C18A G29C C37A A41C, for which the self-cleavage is 0.02.

For the variant C8U A16C G36U, the self-cleavage came out at 0.01.

Regarding A6U A26U G35U, the self-cleavage is 0.1.

Take G1A G7C G36C: the self-cleavage worked out at 0.13.

In the case of A4G C10A U43A, the self-cleavage turned out to be 0.02.

As to C18A C42G C45U, the self-cleavage stood at 0.02.

With A14U U32G G35C U38A, the self-cleavage came out at 0.05.

Turning to A12C C23G U28G G44U, the self-cleavage stood at 0.01.

Regarding C15G A24C G40U, the self-cleavage is 0.02.

As for C15A A16C G17C G21U A24C G27U C37G, the self-cleavage was found to be 0.

Take C23U G27C U43C: the self-cleavage came out at 0.05.

With G17A A25C G27A, the self-cleavage is 0.28.

With C8U G22C A39C G44A, the self-cleavage was 0.13.

In the case of C10U C23U A24C A25U C45A, the self-cleavage stood at 0.03.

Turning to A6U A12U C13U C23G U32C, the self-cleavage was 0.05.

For A12G A16U C23A G33U C45U, the self-cleavage came out at 0.04.

In the case of C15G U38G C46A, the self-cleavage is 0.01.

As for G19U G27U U43A, the self-cleavage was found to be 0.05.

As to A4C G21A A24U U28A, the self-cleavage is 0.4.

C15G G19A U32A: the self-cleavage turned out to be 0.

C10G A14U G17U U38A A39U: the self-cleavage amounted to 0.01.

On to G19U U38C C42U G44C, for which the self-cleavage worked out at 0.03.

G30U G33U G36A C45A: the self-cleavage was found to be 0.02.

As for G19U G40C C46U, the self-cleavage stood at 0.06.

Consider C10U A25U G35U, for which the self-cleavage stood at 0.05.

A12C A16U G29A U43C: the self-cleavage was 0.01.

G1A C15U G17U: the self-cleavage came out at 0.08.

As for U20G G21U G44U, the self-cleavage is 0.24.

As for A6U A16C C37G, the self-cleavage is 0.02.

For the variant G1U C13G U28C U34A C37A, the self-cleavage was determined as 0.02.

As to U9G U20C U32A, the self-cleavage is 0.02.

For G2U A16U G21U G29A G33C G40U, the self-cleavage was found to be 0.

Take G30C C31G U34C G40C: the self-cleavage came out at 0.01.

On to U20G G30A G33A, for which the self-cleavage was 0.02.

As to G17U U20C G27A C42G, the self-cleavage came out at 0.02.

C3G C8A G17C U32A: the self-cleavage was 0.02.

In the case of G5U U32G A39U U43C, the self-cleavage stood at 0.02.

As for G7U C8A G19C U34C, the self-cleavage was 0.09.

As to U9A C13A A14G U32A, the self-cleavage was found to be 0.26.

Take C13A A16U C18A C31U: the self-cleavage came out at 0.09.

Consider A16U G22U C45U, for which the self-cleavage was determined as 0.12.

In the case of C3U A24U U32A A41U, the self-cleavage was found to be 0.26.

Turning to G7C A26C G30U, the self-cleavage came to 0.03.

For the variant G5C G27A G33U, the self-cleavage amounted to 0.6.

Regarding G7A G22U G33U G36C, the self-cleavage was 0.07.

With C8A C10A G17A G36A, the self-cleavage was 0.04.

In the case of C8A G17A C18A G27U G35C, the self-cleavage came to 0.06.

Turning to G19A U32A G35U C46U, the self-cleavage was 0.05.

Take A6C A11C A12G: the self-cleavage is 0.11.

Turning to G5A A6U A12C C15A U28C, the self-cleavage was found to be 0.03.

Take G2A G29C A41U: the self-cleavage was found to be 0.66.

For the variant A4U C8A C10U C42A, the self-cleavage worked out at 0.1.

For the variant A26G G36U C45U, the self-cleavage amounted to 0.07.

As for G7A C23A A39U U43C C45A, the self-cleavage was found to be 0.09.

Consider G2C G5U C10A A14U G36A G40C, for which the self-cleavage came to 0.01.

In the case of C3G G5U U20A G44U, the self-cleavage came out at 0.04.

Consider G2A G7U C31U U34C G36C, for which the self-cleavage came to 0.05.

For C8A C18U U20A G22A C46A, the self-cleavage was found to be 0.25.

On to C15G G27A G30C, for which the self-cleavage stood at 0.03.

For the variant G30A C31A C45A, the self-cleavage came to 0.16.

As to C13A C15U U38C, the self-cleavage was 0.2.

On to G7C U20C G22A, for which the self-cleavage was 0.04.

Regarding U9A G21U G35U, the self-cleavage stood at 0.04.

Turning to C3U U38A C46A, the self-cleavage is 0.33.

With C10U C18U G30C, the self-cleavage was found to be 0.92.

C8G U28A G40A A41G C42A U43C C45G: the self-cleavage was 0.05.

G21A U28C C45U C46G: the self-cleavage was 1.19.

Consider G2C U9C A11G G22U, for which the self-cleavage came to 0.06.

In the case of C8A A11G G27C G40C, the self-cleavage came out at 0.02.

In the case of G5C A6C A11U C13A A24U G30U C42A, the self-cleavage was determined as 0.01.

Take C3U A16U C23A A25G A26G G33U A39U: the self-cleavage was 0.03.

On to G7U A12G G19C G21U A25C C46A, for which the self-cleavage stood at 0.02.

Turning to C18U U20A C31A U43A, the self-cleavage turned out to be 0.05.

For the variant C18A G19C C31G, the self-cleavage came to 0.03.

As to G7C U9C G22C A26U C37A, the self-cleavage stood at 0.01.

Regarding G27C A39C C42U G44U, the self-cleavage was determined as 0.06.

For C23U U28G G30C U38C U43A C45U, the self-cleavage stood at 0.05.

In the case of G7C C23U C37G, the self-cleavage stood at 0.02.

Regarding C10A G17A G21C G40U, the self-cleavage amounted to 0.01.

With G29U G35U G40A, the self-cleavage came out at 0.05.

Regarding C23A A25G G35A, the self-cleavage is 0.01.

As to G5C A24C U28C G40A U43G, the self-cleavage was 0.05.

On to C10U C15G C18U C31G, for which the self-cleavage was determined as 0.02.

With U28G U32G U34C G44U, the self-cleavage came out at 0.01.

As for C8G U9C C42A, the self-cleavage came out at 0.02.

Take G5A C13U G29U C45A: the self-cleavage stood at 0.12.

Take C3U C10U G19C A41C: the self-cleavage amounted to 0.03.

As to C18G A25U G27U U32C C42G, the self-cleavage stood at 0.03.

Turning to G1A C10G U20A C23G G36C, the self-cleavage came out at 0.01.

For G1U C13U C15G G21A, the self-cleavage came out at 0.02.

In the case of A12U G29C A41U, the self-cleavage amounted to 0.02.

Turning to A11U C18A C37G, the self-cleavage was determined as 0.02.
